Experimental data taken from the supplement of paper PMC3334620.
Over roughly 33,000 sequences, “E-score (-0.5 to 0.5)” has its median near -0.01; the highest 2% begin near 0.26. The list shows a part of the results.

Each sequence was assayed against Ste12 (UniProt P13574) (assay: PBM E-score (8-mer binding enrichment) (E-score (-0.5 to 0.5)); higher = stronger / more preferred TF binding; most listed sequences are background and not binding sites). Conditions: protein concentration: 200 nM; construct: GST-DNA-binding domain.
Outline: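 Masliner-normalised scans of fluorescent anti-GST signal were the basis for scoring. That signal came from GST-tagged yeast transcription factors applied at about 100-200 nM to double-stranded universal all-10-mer Agilent arrays on fresh or once-stripped slides. Each ungapped eight-base word, pooled with its reverse complement, received an E-score from the Universal PBM Analysis Suite.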

Sequence | PBM E-score
AGTGAAAA | 0.213
ACCTAGGT | 0.0447
CCCGCACG | -0.0206
ACTAGACT | -0.123
AGTGTCAA | -0.0143
CAGATATC | -0.103
ACGGTGCC | -0.114
ACAAAGTC | -0.0664
ATGAGAAA | 0.114
TAAGACGA | -0.112
AGCGATGA | 0.0595
CAGGTTTA | 0.0837
CCGCCTGA | -0.0902
ATGAGCAT | -0.102
AATAAGCC | 0.108
ACTGGTCT | -0.117
CGCAGTTA | 0.0341
CCCTCGTA | 0.0496
CGCCCGGC | -0.0822
AGGGCGTG | -0.116
AGTATATG | 0.143
CATTGACA | -0.0517
GGAACCGA | 0.045
ACCACTGA | -0.144

Sequence | PBM E-score
ATATAGTC | 0.107
CCCCCTAC | -0.195
CCAATGAA | -0.00717
CGTGTATC | 0.0188
GGAGTACC | -0.152
ATGAAATC | 0.185
ACACCCGA | 0.16
GCTGAACC | -0.11
AAGATTCC | 0.0227
GAGCAAAC | 0.122
GAAGCGGA | 0.0896
AGGACTAT | -0.0951
GCAAACGA | 0.0921
ACGCGAGA | 0.0932
CTATCTTC | 0.0444
CATCACAG | -0.195
CCCGGCGA | -0.0972
CCCCTAAC | 0.0263
CACGAAGG | -0.177
CTGCATGA | -0.167
AACGACGT | -0.0255
ATGACCAT | -0.0934
CCAACGCG | -0.107
AACGCCAT | -0.0406

Sequence | PBM E-score
ACTCTGTA | -0.211
AAGCAATC | -0.122
AAAGTAGC | -0.00641
CATGGAAG | -0.0967
ATGACGGG | -0.0119
ATTACATG | 0.153
CGTTATCA | 0.109
CTTATGAA | 0.204
TACAGTAA | 0.0747
AACCCCCT | -0.31
ATAGGTTC | -0.0324
GTTCGAAA | 0.259
AAGTTTTA | 0.287
CGCTCTCA | -0.199
AATAGGAT | 0.217
TACGTTGA | -0.0157
CTCGTTTC | 0.242
CGAGGCAC | -0.166
CCGTAATA | 0.00265
CGAGAGAA | 0.146
GGAATTAC | 0.135
TCCCGGAA | 0.173
AAGACAGC | -0.128
ATTTTAAC | 0.19

Sequence | PBM E-score
ATTCACCC | 0.0833
AGAATCCT | -0.0558
TAGTGTCA | 0.0527
AGCTTCAA | 0.0343
CCCTTCGA | -0.167
GAAATCGA | 0.0812
ACTCGTTG | -0.066
TGTTCGAA | 0.0877
AACATGAA | 0.197
GAGGTTGC | -0.175
AGAACTCC | -0.0887
GTGGGGTA | 0.302
ACTACACA | -0.0335
AACAGGTC | -0.03
ATGAAAAC | 0.349
TGACAGAA | -0.00773
CGCGATAA | 0.147
CAGATGGA | 0.0921
AGGGGCCG | -0.0825
ATGCATTG | -0.246
CCGATAAA | 0.161
CACAGACA | -0.0505
